Hit rate of the full screen: of about 410,000 compounds, about 310 (0.076%) were called active. Inconclusive means that the source gave no clear call. Such entries were picked first, then a sample of the others. Calls come from the whole dose curve; as a rule, active = well fitted curve in the direction sought with a large enough effect; inconclusive = small, poorly fitted or top-dose-only effect; inactive = flat fitted curve, though single readings scatter. Where the call is inconclusive, the potency comes from a doubtful curve fit.
The compounds below were run against DNA dC->dU-editing enzyme APOBEC-3G (Homo sapiens) (UniProt Q9HC16) (assay: qHTS for Inhibitors of Vif-A3G Interactions: qHTS). Details: HeLa A3G-eYFP + Vif (tagged APOBEC3G with the HIV-1 protein that degrades it), YFP fluorescence, overnight; series mostly up to 46.1 µM; activity, negative = active: at the top concentration.
Chain of UniProt Q9HC16 (Q9HC16 whole entry, looked up): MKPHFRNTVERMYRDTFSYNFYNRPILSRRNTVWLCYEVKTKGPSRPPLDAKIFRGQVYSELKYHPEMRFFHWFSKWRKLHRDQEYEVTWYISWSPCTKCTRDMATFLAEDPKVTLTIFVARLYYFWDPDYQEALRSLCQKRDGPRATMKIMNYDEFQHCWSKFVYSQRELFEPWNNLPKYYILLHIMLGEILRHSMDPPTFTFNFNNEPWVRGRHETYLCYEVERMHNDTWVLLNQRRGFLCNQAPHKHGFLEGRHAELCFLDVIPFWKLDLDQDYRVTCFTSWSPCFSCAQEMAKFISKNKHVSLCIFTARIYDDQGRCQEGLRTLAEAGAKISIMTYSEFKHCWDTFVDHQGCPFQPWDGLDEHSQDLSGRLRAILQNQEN
How it was run: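 HeLa cells stably expressing Vif and C-terminally eYFP-tagged A3G, seeded overnight at 37 deg C, then exposed to compound by pintool overnight at 37 deg C. Rise in yellow fluorescence (Ex 488/Em 500-530, Acumen) marks blocked Vif-driven A3G degradation.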
% is set by controls: 0 for no effect and ±100 for the full control effect; potency is the fitted concentration of half-maximal effect; tags give direction and shape of the fitted curve.
Note: nearly all actives have a fitted effect of over 60% in size.
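Throughout, for activity, negative = active: hits raise eYFP signal because A3G escapes Vif-driven loss.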

Row | Structure (SMILES) | Potency | activity, negative = active
1 | Cc1[nH]c2ccccc2c1/C=C/c1cc[n+](C)cc1 | active: 3.16 µM | 
2 | COCc1cc(=O)n2[nH]c(N)nc2n1 |  | inactive: 0.202%
3 | Cc1ccc2c(c1)-c1c(ssc1=S)C(C)(C)N2C(=O)CSc1nncn1C |  | inactive: 1.54%
4 | Cc1csc(NC(=O)CSc2nc3[nH]c(=O)cc(O)c3s2)n1 | inconclusive: 10 µM [inhibitor, partial curve] | 
5 | COCCNC(=O)C(=O)Nc1ccc2c(c1)N(S(=O)(=O)c1cccs1)CCC2 | inconclusive: 1.26 µM [inhibitor, full curve, poor fit] | 
6 | COc1cccc(OCc2cc(/C=N/NC(=O)c3ccn[nH]3)ccc2OC)c1 | inconclusive: 22.4 µM [inhibitor, single point] | 
7 | O=C(NCC(c1cccs1)N1CCOCC1)c1ccco1 (stereo not given) | inconclusive: 22.4 µM [inhibitor, single point] | 
8 | Cc1onc(-c2ccccc2)c1C(=O)N/N=C/C(Br)=C/c1ccccc1 | inconclusive: 35.5 µM [inhibitor, single point] | 
9 | CCC1(O)C(=O)OCc2c1cc1n(c2=O)Cc2cc3c(N)cccc3nc2-1 (stereo not given) |  | inactive: 4.75%
10 | O=C(Cc1ccc(OCC2CCCCC2)cc1)NO |  | inactive: -8.14%
11 | CC1=C(c2ccccc2)C(O)(c2ccccc2)C(C)C1=O (stereo not given) | inconclusive: 11.2 µM [inhibitor, partial curve] | 
12 | O=C1CN(C(=O)Cn2ncc(Cl)c(Cl)c2=O)c2ccccc2N1 | inconclusive: 5.62 µM [inhibitor, single point] | 
13 | Cn1cc(CN2CCCC(C(=O)Nc3ccc(-c4cccc(F)c4)cc3)C2)cn1 (stereo not given) | inconclusive: 35.5 µM [inhibitor, single point] | 
14 | CS(=O)(=O)Nc1cccc(NC(=O)C2Cc3c(-c4cccc(F)c4)ccnc3O2)c1 (stereo not given) | inconclusive: 1.26 µM [inhibitor, partial curve, poor fit] | 
15 | COC(=O)c1ccc(C(=O)NC2CCCc3c2cnn3-c2cc(F)cc(F)c2)nc1 (stereo not given) | inconclusive: 2 µM [inhibitor, full curve, poor fit] | 
16 | Cn1c(CCN2CCCC2)nc2cc(NS(=O)(=O)c3ccc(F)cc3)ccc21 | inconclusive: 35.5 µM [inhibitor, partial curve, poor fit] | 
17 | CCOc1ccccc1OCC(=O)N/N=C(\C)Cc1ccc(OC)cc1 | inconclusive: 5.01 µM [inhibitor, partial curve] | 
18 | Cc1ccc(/C=N/NC(=O)c2ccc3c(c2)OCCO3)s1 | inconclusive: 17.8 µM [inhibitor, single point] | 
19 | Cc1ccsc1C(=O)NCC(c1cccs1)N1CCOCC1 (stereo not given) | inconclusive: 35.5 µM [inhibitor, single point] | 
20 | CC(C)CCNC(=O)c1ccc2c(c1)NC(=O)C(CS(=O)(=O)Cc1cccc(Br)c1)N2 (stereo not given) | inconclusive: 22.4 µM [inhibitor, single point] | 
21 | OCCC1CN(Cc2ccc(-c3ccco3)cc2)CCN1Cc1ccsc1 (stereo not given) |  | inactive: 3.55%
22 | COc1ccccc1N1CCN(C(=O)c2cn(-c3ccccc3)nc2-c2cccnc2)CC1 | inconclusive: 31.6 µM [inhibitor, partial curve, poor fit] | 
23 | COc1ccc(OCCCCn2c(C3CC(=O)N(c4cccc(Cl)c4)C3)nc3ccccc32)cc1 (stereo not given) |  | inactive: 0.105%
24 | CCN1C(=O)C(=O)c2cc(C)ccc21 |  | inactive: 0.379%

Row | Structure (SMILES) | Potency | activity, negative = active
25 | COCCNC(=S)N/N=C(\C)c1ccc(C)c([N+](=O)[O-])c1 |  | inactive: 1.74%
26 | O=Cc1ccccc1OCCCOc1cccc2cccnc12 | inconclusive: 10 µM [inhibitor, partial curve] | 
27 | CSc1nc(Oc2ccc3ccccc3c2)c2ccccc2n1 | inconclusive: 15.8 µM [inhibitor, single point] | 
28 | CC(C)(O)C#Cc1ccc([C@@H]2C[C@H]3CN(c4ccccc4)C(=O)[C@]34CCCN24)s1 | inconclusive: 11.2 µM [inhibitor, partial curve, poor fit] | 
29 | Cc1cc(C)c2nc(SCC(=O)Nc3ccccc3N3CCOCC3)c(C#N)cc2c1 |  | inactive: -2.59%
30 | Cc1cccc2c(C(=O)N3CCN(c4ccccc4)CC3)cc(-c3ccncc3)nc12 | inconclusive: 1.12 µM [inhibitor, full curve, poor fit] | 
31 | N#CC1=CN(Cc2ccccc2)C=C(/C=N/Nc2ccccc2)C1 | inconclusive: 28.2 µM [inhibitor, single point] | 
32 | CCCc1c(OCCCCc2nn[nH]n2)ccc(C(C)=O)c1O |  | inactive: -5.16%
33 | COc1cc(NC(=O)CCl)ccc(=O)c1 | inconclusive: 25.1 µM [inhibitor, single point] | 
34 | COc1ccc(C(=O)NC(=S)Nc2ccc(Cl)c(C(=O)O)c2)cc1 |  | inactive: -4.93%
35 | Cc1nc2ccccc2n1CCc1nc2c3ccccc3nc(SCC(=O)NCc3ccco3)n2n1 | inconclusive: 31.6 µM [inhibitor, single point] | 
36 | O=C(COC(=O)c1nc(Cl)c(Cl)c(Cl)c1Cl)c1ccc[nH]1 | inconclusive: 28.2 µM [inhibitor, single point] | 
37 | CCCn1nc([N+](=O)[O-])c(C(C#N)c2nc3ccccc3o2)c(Cl)c1=O (stereo not given) |  | inactive: -10.2%
38 | CSc1nc(SCC(=O)NCc2ccco2)c2c3c(sc2n1)COC(C)(C)C3 | inconclusive: 3.16 µM [inhibitor, full curve, poor fit] | 
39 | CC(=O)Nc1cc(NC(C)=O)cc(-c2nc3ccccc3[nH]2)c1 | inconclusive: 17.8 µM [inhibitor, single point] | 
40 | CCOc1cc(CNc2ccc(O)cc2)ccc1OCc1ccc(Cl)cc1 |  | inactive: -5.97%
41 | Cc1ccc(-c2cc(-c3ccccc3)[nH]c(=S)c2C#N)cc1 |  | inactive: -5.3%
42 | CCCCC(=O)/C=C/n1c(=S)oc2ccccc21 | inconclusive: 12.6 µM [inhibitor, single point] | 
43 | Cc1nn(-c2ccccn2)c(C)c1Oc1ccccc1O | inconclusive: 28.2 µM [inhibitor, single point] | 
44 | COc1cccc(C(=O)c2sc3nc(-c4ccccc4)cc(C(F)(F)F)c3c2N)c1 | inconclusive: 1 µM [inhibitor, full curve, poor fit] | 
45 | CCOC(=O)c1c(NC(C)=O)sc2c1CCC(C=O)=C2Sc1ccccc1 | inconclusive: 25.1 µM [inhibitor, single point] | 
46 | COc1ccc(-c2cnc3c(NC=O)cc(-c4ccc(C(=O)N5CCOCC5)cc4)cn23)cc1OC | inconclusive: 20 µM [inhibitor, single point] | 
47 | Cc1cccc(C=Nc2ccccc2C(N)=O)c1 | active: 10 µM | 
48 | C=C(C)COc1ccc(-c2n[nH]c(C)c2-c2ccc(Br)cc2)c(O)c1 | inconclusive: 4.47 µM [inhibitor, single point] | 

Row | Structure (SMILES) | Potency | activity, negative = active
49 | O=C(CN1CCCC1)N1c2ccccc2Sc2ccccc21 |  | inactive: 1.79%
50 | O=S(=O)(Nc1nc2n(n1)C(c1ccc(F)cc1)C=C(c1ccccc1)N2)c1ccccc1 (stereo not given) | inconclusive: 22.4 µM [inhibitor, single point] | 
51 | O=C(C1CC(=O)N(c2ccc3c(c2)OCCO3)C1)N1CCN(c2cccc(C(F)(F)F)c2)CC1 (stereo not given) | inconclusive: 22.4 µM [inhibitor, partial curve, poor fit] | 
52 | N#Cc1c(N)n(CCNC(=O)c2ccccc2)c2nc3ccccc3nc12 | inconclusive: 22.4 µM [inhibitor, single point] | 
53 | COc1ccc(CNC(=O)/C(C#N)=C/c2cccc(OC)c2OC)cc1 | inconclusive: 25.1 µM [inhibitor, single point] | 
54 | COc1ccc2c(c1)c1nc3ccccc3nc1n2Cc1ccc(OC)c(OC)c1 | inconclusive: 35.5 µM [inhibitor, single point] | 
55 | O=C1S/C(=C\c2ccc(N3CCOCC3)o2)C(=O)N1c1ccccc1 | active: 4.47 µM | 
56 | Nc1nc(Nc2ccccc2)nc(N2CCCC2)c1[N+](=O)[O-] | inconclusive: 22.4 µM [inhibitor, single point] | 
57 | CCOC(=O)C(C)Oc1cccc2c(=O)n(CC(=O)NCc3ccccc3)ccc12 (stereo not given) | inconclusive: 0.631 µM [inhibitor, full curve, poor fit] | 
58 | CN(C)c1ccc(/C=C/c2ccnc3ccccc23)c(N)c1 | inconclusive: 15.8 µM [inhibitor, partial curve, poor fit] | 
59 | CC1=Nc2cc(C(=O)NCC3CCCO3)ccc2Sc2ccc(Br)cc21 (stereo not given) | inconclusive: 3.55 µM [inhibitor, partial curve, poor fit] | 
60 | COc1ccc(CCN2CCC(Nc3nc4ccccc4n3Cc3ccc(F)cc3)CC2)cc1 |  | inactive: -11.1%
61 | Cc1cc2c(N=O)c(NO)ccc2[nH]1 | active: 5.62 µM | 
62 | Clc1ccc2c(NCCNC3CCCCC3)ccnc2c1 |  | inactive: 4.05%
63 | CCOC(=O)N1CCN(CC(=O)N2c3ccccc3Sc3ccccc32)CC1 |  | inactive: 3.06%
64 | Cc1ccc2c(c1)CCCN2C(=O)CCc1nc2ccccc2c(=O)[nH]1 | inconclusive: 1.12 µM [inhibitor, partial curve, poor fit] | 
65 | CCCCc1c(C)c(C#N)c2[nH]c3ccccc3n2c1=O |  | inactive: -1.21%
66 | CN(C)CCOc1ccccc1-c1ccccc1 |  | inactive: -6.97%
67 | CC(=O)Nc1ccc(NC(=O)c2ccc(NS(=O)(=O)c3cc(C(C)(C)C)cc(C)c3C)cc2)cc1 | inconclusive: 31.6 µM [inhibitor, single point] | 
68 | Cc1noc(C)c1COc1cccc(C(=O)OC(C)C(=O)Nc2ccc3c(c2)OCO3)c1 (stereo not given) | inconclusive: 3.55 µM [inhibitor, full curve] | 
69 | O=C(CSc1nc2ccccc2s1)Nc1cc(C(=O)O)cc(C(=O)O)c1 |  | inactive: 1.22%
70 | COCCCNC(=O)c1ccc(Cn2c(=O)c3ccccc3n(CC(=O)NCc3ccco3)c2=O)cc1 | inconclusive: 11.2 µM [inhibitor, partial curve] | 

Source: PubChem BioAssay AID602310 (National Center for Advancing Translational Sciences (NCATS), 2012)
